“And” between values parts separate entries of the source, which are not always exact repeats. Identical values can stand only once.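 Briefly, cells in 96-well plates were exposed to five compound concentrations for 48 h, and endpoints were estimated by linear interpolation. GI50 = concentration required for 50% inhibition of growth.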 The source made the active and inactive calls. Rule as the data show it: active = GI50 up to about 1.1 µM and inactive = higher.

The test system of the test is NCI-H322M. Put plainly: NCI tumour cell line growth inhibition, 48 h.
With `COc1ccc2c(c1)CCCc1c-2nc2ccccc2c1N`, the GI50 is inactive: 6.15 µM. Under `c1ccc2c(c1)[nH]c1c3ccccc3sc21` stands inactive: > 100 µM; under `COc1cccc(N(CN2CC=CC2=O)C(C)=O)c1`, inactive: > 100 µM.

As to `COC(=O)n1c(=O)n(-c2ccccc2)c(=O)n1C(=O)Nc1ccccc1`, the GI50 is inactive: > 100 µM. The value for `CCOC(=O)c1cc2c(ccc3cc(C(=O)OCC)[nH]c32)[nH]1` was inactive: 42.2 µM; that for `CCCCCCCCCCCCCCCCCCNc1ccn(C2OC(COP(=O)(O)OCC(COP(=O)(O)OCC3OC(n4cc(C)c(=O)[nH]c4=O)CC3N=[N+]=[N-])OCCCCCCCCCCCCCCCCCC)C(O)C2O)c(=O)n1` (stereo not drawn) was inactive: > 100 µM; that for `C=CCNC(=O)/C=C\C(=O)O` was inactive: > 100 µM. The value for `N=c1oc2cc(O)ccc2cc1C(=O)NCc1ccccc1` was inactive: 30.9 µM; that for `CO/N=C(\C(=O)O/C(=N/C1CCCCC1)NC1CCCCC1)c1csc(NC(c2ccccc2)(c2ccccc2)c2ccccc2)n1` was inactive: > 10 µM. Take `COc1ccc(N2C(=O)CS(=O)(=O)C2c2cccc(Oc3ccccc3)c2)cc1` (stereo not drawn): the GI50 was inactive: 7.23 µM.

As for `Cc1ccc2oc(=O)cc(CC(=O)O)c2c1`, the GI50 was inactive: > 100 µM. Under `Cc1ccccc1C(=O)Oc1ccc(OCc2ccccc2)cc1` stands inactive: > 100 µM. The value for `COc1ccc(CC(CO)NC(=O)OCc2ccccc2)cc1Oc1ccc(CC(CO)NC(=O)OCc2ccccc2)cc1` (stereo not drawn) was inactive: 19.3 µM; that for `COc1ccc2nc(N/N=C/c3ccc(C)s3)cc(C)c2c1` was inactive: 12.5 µM. Take `Cc1nn(-c2cc(Cl)ccc2[N+](=O)[O-])c(C)c1Cl`: the GI50 was inactive: > 100 µM. Under `CC(NC(CC12CC3CC(CC(C3)C1)C2)C(N)=O)c1ccccc1` (stereo not drawn) stands inactive: 32.1 µM; under `N#Cc1c(O)c2ccccc2[nH]c1=O`, inactive: > 100 µM. The value for `CCOC(=O)CCC(NC(=O)Cc1ccc(Nc2nc3ccccc3nc2-c2cccs2)cc1)C(=O)OCC` (stereo not drawn) was inactive: 53 µM; that for `COc1ccc(Nc2nc3c(N)cc(C(F)(F)F)cc3nc2-c2ccccc2)cc1` was inactive: > 100 µM. The value for `COc1cc(C2=NN(C)C(c3ccc([N+](=O)[O-])o3)C2)cc(OC)c1OC` (stereo not drawn) was inactive: > 100 µM.

`CC[C@@H]1/C=C/C=C/C[C@H](C)[C@@H](O)[C@@H](C)C(=O)[C@H](C)[C@@H](O)[C@H](C)C(=O)[C@H](C)[C@@H](O)[C@H](C)/C=C/C(=O)O[C@H]2[C@@H](C)[C@@H](CC1)O[C@@]1(CC[C@@H](C)[C@@H](CC(C)O)O1)[C@@H]2C` (stereo partly drawn): the GI50 is inactive: 8.71 µM. For the compound `NNC(=O)N/N=C1/C(=O)N(c2ccc(Cl)c(Cl)c2)C(=O)C(=O)C1c1nc2ccccc2o1` (stereo not drawn), the GI50 was inactive: > 100 µM. The value for `CC12CCCCC1(C)C2Sc1ccccc1` (stereo not drawn) was inactive: > 100 µM; that for `CCOc1ccc(C2=C(Cl)c3cc(OC)c(OC)cc3C2Cl)cc1` (stereo not drawn) was inactive: 52.7 µM; that for `CCOC(=O)/C(C#N)=C/c1ccnc2ccccc12` was inactive: 70.6 µM.

Consider `CC1OC(OC2C(CO)OC(O[C@H]3CC[C@@]4(C)C(=CC[C@H]5[C@@H]6C[C@@H]7O[C@](O)(CC[C@H](CO)COC8OC(CO)C(O)C(O)C8O)[C@@H](C)[C@@H]7[C@@]6(C)CC[C@@H]54)C3)C(OC3OC(C)C(O)C(O)C3O)C2O)C(O)C(O)C1O` (stereo partly drawn), for which the GI50 was inactive: > 100 µM. As for `Cc1[nH]c(=O)nc(NCCNCCO)c1C(=O)Nc1c2ccccc2nc2ccccc12`, the GI50 is inactive: > 100 µM. Regarding `O=C1CCCC/C1=C/C=C/c1ccccc1`, the GI50 is inactive: > 100 µM. The value for `CC1CC[C@@]2(OC1)O[C@H]1C[C@H]3[C@@H]4CC[C@H]5C[C@@H](OC6OC(CO)C(OC7OC(CO)C(OC8OC(CO)C(O)C(OC9OC(C)C(OC%10OC(C)C(O)C(O)C%10O)C(O)C9O)C8OC8OCC(O)C(O)C8O)C(O)C7O)C(O)C6O)CC[C@]5(C)[C@H]4CC(=O)[C@]3(C)[C@H]1[C@@H]2C` (stereo partly drawn) was inactive: 18.5 µM; that for `CCC(C)(C)NC1=C(NC(C)=O)C(=O)c2ccccc2C1=O` was inactive: > 75 µM; that for `COc1cccc2c1C(=O)c1c(O)c3c(c(O)c1C2=O)C[C@@](O)(/C(C)=N/NC(=O)c1ccc(Cl)c(Cl)c1)C[C@@H]3OC1CC(N)C(O)C(C)O1` (stereo partly drawn) was active: 0.451 µM. The value for `O=S(=O)(N/N=C/c1ccc(/C=N/NS(=O)(=O)c2ccccc2)cc1)c1ccccc1` was inactive: 65.6 µM; that for `COC(=O)C1(F)C(=O)NC(=O)NC1O` (stereo not drawn) was inactive: > 100 µM.

On to `O=Cc1cn(C(=O)c2ccccc2)c2ccccc12`, for which the GI50 is inactive: > 100 µM. Under `CC(C)CNC(=O)CCc1cccc2c1oc1c(CCN)cccc12` stands inactive: 18.7 µM; under `O=C1C(NCCc2ccc(O)c(O)c2)=CC(=O)c2ncccc21`, inactive: 16.4 µM. `O=C1c2cc([N+](=O)[O-])sc2C(=O)c2ccsc21`: the GI50 is inactive: 1.65 µM. Under `COc1cccc(/C=C/C2=NN(c3cccc(S(=O)(=O)O)c3)C3(C2)SCC(=O)N3c2nc3ccccc3s2)c1` (stereo not drawn) stands inactive: > 100 µM; under `O=C(O)CCC(NC(=O)c1ccc(CNc2nc3ccccc3nc2C(=O)O)cc1)C(=O)O` (stereo not drawn), inactive: > 100 µM. With `O=C(N/N=C(\c1nc2ccc(Cl)cc2nc1O)C(O)c1ccccc1Cl)c1ccncc1` (stereo not drawn), the GI50 was inactive: > 100 µM. The value for `ClCCCN(CCCCl)c1ccc(/C=N/c2cccc(Cl)c2)cc1` was inactive: 21.5 µM; that for `CC(=O)N1N=C(c2ccc3ccccc3c2O)CC1c1ccc(N(C)C)cc1` (stereo not drawn) was inactive: > 100 µM. On to `Nc1ccccc1-c1noc(=O)[nH]1`, for which the GI50 is inactive: > 100 µM. Under `O=C1NN=C2C=C(c3ccc(Cl)cc3)CC(c3cccc(Br)c3)C12` (stereo not drawn) stands inactive: > 100 µM. In the case of `CCOC(=O)C(N)CSC(=O)NC` (stereo not drawn), the GI50 is inactive: 282 µM. Under `C[n+]1c2ccccc2n2c3ccccc3c(NCCCN3CCOCC3)c(C#N)c21` stands inactive: 1.45 µM; under `N#CC(Cl)CS(=O)(=O)c1ccccc1` (stereo not drawn), inactive: 15.6 µM. The value for `CCOC(=O)/C(C(=S)Nc1ccccc1)=C(/N)N1CCCC1` was inactive: > 100 µM; that for `O=C(C#Cc1ccccc1)N1CCCCC1` was inactive: > 100 µM; that for `O=C1/C(=C/c2ccc(Br)s2)NC(=S)N1CN1CCOCC1` was inactive: > 100 µM. Under `O=C1C(C(O)(C(F)(F)Cl)C(F)(F)Cl)CCC1C(O)(C(F)(F)Cl)C(F)(F)Cl` (stereo not drawn) stands inactive: 5.04 µM.

Consider `COc1cc(C(=O)N2CCc3c([nH]c4c([N+](=O)[O-])c(OC)ccc34)C2C)cc(OC)c1OC` (stereo not drawn), for which the GI50 was inactive: > 100 µM. Under `N#CCCN(CCC#N)c1ccc(/C=C2\SC(=S)NC2=O)cc1` stands inactive: > 100 µM; under `Cc1cc(N(CCOS(C)(=O)=O)CCOS(C)(=O)=O)ccc1/C=N/c1ccc(-c2csc(-c3ccc(Br)cc3)n2)cc1`, inactive: 7.71 µM; under `O=[N+]([O-])c1ccc2c(c1)c1nn2CCCCOc2nn(c3ccc([N+](=O)[O-])cc23)CCCCO1`, inactive: > 100 µM. The value for `O=C1CC(Cl)c2c(Cl)sc(Cl)c21` (stereo not drawn) was inactive: 15.5 µM. The value for `Cc1cccc(C(C)C)c1NC(=O)C(=O)C(C(=O)c1ccccc1F)C1OC(=O)c2ccccc21` (stereo not drawn) was inactive: 16.3 µM; that for `Clc1ccc(-c2nnc(-c3nn(-c4ccccc4)c4nc5ccccc5nc34)o2)cc1` was inactive: > 100 µM; that for `Nc1nc(SCCNC(=O)CCc2ccc(O)c(I)c2)nc2c1ncn2C1OC(CO)C(O)C1O` (stereo not drawn) was inactive: > 100 µM. For the compound `O=C(Cc1csc2[n+]1C(=O)/C(=C/c1ccc(Cl)cc1)S2)Nc1ccccc1`, the GI50 was inactive: 21.7 µM. The value for `CCOc1ccccc1N1C(=O)C(=O)C(c2nc3ccccc3s2)C(=O)C1=O` was inactive: 67.9 µM; that for `Cc1nc(Cl)c2sc(=S)n(-c3ccc(F)cc3)c2n1` was inactive: 11.7 µM. Under `Cc1ccc(C2=Nc3ccccc3NC(=O)C2)cc1` stands inactive: > 100 µM. In the case of `O=C1NC2(NC(=O)C1=O)Nc1ccccc1S2`, the GI50 is inactive: > 100 µM. The value for `CCOC(=O)/C(C#N)=C/N(CC)/N=C/c1ccccc1` was inactive: > 100 µM; that for `CCOC(=O)CCC(NC(=O)c1ccc(OCc2nc3ccccc3n3cccc23)cc1)C(=O)OCC` (stereo not drawn) was inactive: > 100 µM.

With `CCOC(=O)c1ccc(N[C@@H]2c3cc4c(cc3C(c3cc(OC)c(O)c(OC)c3)[C@H]3C(=O)OCC32)OCO4)cc1` (stereo partly drawn), the GI50 is inactive: 3.85 µM. Regarding `CCC12CC[C@H](C#N)N3CCc4c(n(c5ccccc45)C(=O)C1)C32` (stereo partly drawn), the GI50 is inactive: 17.8 µM.

In the case of `CC1CC2OC(=O)CC2C[C@@H]1O[Si](C)(C)C(C)(C)C` (stereo partly drawn), the GI50 was inactive: > 100 µM.

`NS(=O)(=O)c1nnc(NC(=O)c2ccccc2)s1`: the GI50 is inactive: > 100 µM.

With `COc1cccc(-c2cc(O)c3cc(N(C)C)ccc3n2)c1`, the GI50 is active: 52.2 nM and active: 49.3 nM. `O=C1Cc2c([nH]c3ccc(Br)cc23)-c2cc(O)c(O)cc2N1`: the GI50 was inactive: > 100 µM.

As to `C[n+]1c(-c2ccc(/C=N/Nc3ccnc(N/N=C/c4ccc(-c5cn6ccsc6[n+]5C)cc4)n3)cc2)cn2ccsc21`, the GI50 is inactive: 20.2 µM. The value for `COc1ccc(/C=C/C(=O)c2ccccc2)cc1OC` was inactive: 13.2 µM; that for `Cc1cc(C)c2c(O)cc(-c3ccc4ccccc4c3)nc2n1` was inactive: 37.2 µM; that for `Oc1cccc2c1[nH]c1c(C3=C[C@@]4(O)CC/C=C\CCCCN5CC[C@@H]3[C@]3(CC6/C=C\CCCCN6[C@H]34)C5)nccc12` (stereo partly drawn) was inactive: 3.4 µM. The value for `CNc1cccnc1/C=N/N=C(/N)S` was inactive: 3.2 µM; that for `CN(C)CCC1(C2=CCCC2)CC/C(=C\c2ccccc2Cl)C1=O` (stereo not drawn) was inactive: 14.5 µM.

The values above are taken from ChEMBL document CHEMBL1201862, “PubChem BioAssay data set” (2004).
